Among the data in publication PMC2758594 are binding values, retold here.

Sequences of proteins named here, by UniProt entry; tags and fusion partners are left off. A change or cut given only in a name is not applied to a line headed by its entry. A line that says so, or that is headed by a name, gives the form on record, which may keep a tag or linker. Residues count along the entry.
Myc-MLCK_B (Q15746, residues 272-666): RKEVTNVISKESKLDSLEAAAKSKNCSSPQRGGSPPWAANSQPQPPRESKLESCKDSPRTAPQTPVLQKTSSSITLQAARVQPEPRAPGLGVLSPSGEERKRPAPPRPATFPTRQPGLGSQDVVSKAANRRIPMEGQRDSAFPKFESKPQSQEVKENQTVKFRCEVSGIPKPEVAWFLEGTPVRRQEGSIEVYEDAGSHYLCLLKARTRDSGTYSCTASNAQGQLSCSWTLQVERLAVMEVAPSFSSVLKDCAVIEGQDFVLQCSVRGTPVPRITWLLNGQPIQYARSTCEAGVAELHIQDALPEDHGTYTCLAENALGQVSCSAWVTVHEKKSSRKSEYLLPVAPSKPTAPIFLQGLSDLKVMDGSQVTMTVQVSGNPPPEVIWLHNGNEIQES
full-length long MLCK variant 2 (Q15746-2, form named): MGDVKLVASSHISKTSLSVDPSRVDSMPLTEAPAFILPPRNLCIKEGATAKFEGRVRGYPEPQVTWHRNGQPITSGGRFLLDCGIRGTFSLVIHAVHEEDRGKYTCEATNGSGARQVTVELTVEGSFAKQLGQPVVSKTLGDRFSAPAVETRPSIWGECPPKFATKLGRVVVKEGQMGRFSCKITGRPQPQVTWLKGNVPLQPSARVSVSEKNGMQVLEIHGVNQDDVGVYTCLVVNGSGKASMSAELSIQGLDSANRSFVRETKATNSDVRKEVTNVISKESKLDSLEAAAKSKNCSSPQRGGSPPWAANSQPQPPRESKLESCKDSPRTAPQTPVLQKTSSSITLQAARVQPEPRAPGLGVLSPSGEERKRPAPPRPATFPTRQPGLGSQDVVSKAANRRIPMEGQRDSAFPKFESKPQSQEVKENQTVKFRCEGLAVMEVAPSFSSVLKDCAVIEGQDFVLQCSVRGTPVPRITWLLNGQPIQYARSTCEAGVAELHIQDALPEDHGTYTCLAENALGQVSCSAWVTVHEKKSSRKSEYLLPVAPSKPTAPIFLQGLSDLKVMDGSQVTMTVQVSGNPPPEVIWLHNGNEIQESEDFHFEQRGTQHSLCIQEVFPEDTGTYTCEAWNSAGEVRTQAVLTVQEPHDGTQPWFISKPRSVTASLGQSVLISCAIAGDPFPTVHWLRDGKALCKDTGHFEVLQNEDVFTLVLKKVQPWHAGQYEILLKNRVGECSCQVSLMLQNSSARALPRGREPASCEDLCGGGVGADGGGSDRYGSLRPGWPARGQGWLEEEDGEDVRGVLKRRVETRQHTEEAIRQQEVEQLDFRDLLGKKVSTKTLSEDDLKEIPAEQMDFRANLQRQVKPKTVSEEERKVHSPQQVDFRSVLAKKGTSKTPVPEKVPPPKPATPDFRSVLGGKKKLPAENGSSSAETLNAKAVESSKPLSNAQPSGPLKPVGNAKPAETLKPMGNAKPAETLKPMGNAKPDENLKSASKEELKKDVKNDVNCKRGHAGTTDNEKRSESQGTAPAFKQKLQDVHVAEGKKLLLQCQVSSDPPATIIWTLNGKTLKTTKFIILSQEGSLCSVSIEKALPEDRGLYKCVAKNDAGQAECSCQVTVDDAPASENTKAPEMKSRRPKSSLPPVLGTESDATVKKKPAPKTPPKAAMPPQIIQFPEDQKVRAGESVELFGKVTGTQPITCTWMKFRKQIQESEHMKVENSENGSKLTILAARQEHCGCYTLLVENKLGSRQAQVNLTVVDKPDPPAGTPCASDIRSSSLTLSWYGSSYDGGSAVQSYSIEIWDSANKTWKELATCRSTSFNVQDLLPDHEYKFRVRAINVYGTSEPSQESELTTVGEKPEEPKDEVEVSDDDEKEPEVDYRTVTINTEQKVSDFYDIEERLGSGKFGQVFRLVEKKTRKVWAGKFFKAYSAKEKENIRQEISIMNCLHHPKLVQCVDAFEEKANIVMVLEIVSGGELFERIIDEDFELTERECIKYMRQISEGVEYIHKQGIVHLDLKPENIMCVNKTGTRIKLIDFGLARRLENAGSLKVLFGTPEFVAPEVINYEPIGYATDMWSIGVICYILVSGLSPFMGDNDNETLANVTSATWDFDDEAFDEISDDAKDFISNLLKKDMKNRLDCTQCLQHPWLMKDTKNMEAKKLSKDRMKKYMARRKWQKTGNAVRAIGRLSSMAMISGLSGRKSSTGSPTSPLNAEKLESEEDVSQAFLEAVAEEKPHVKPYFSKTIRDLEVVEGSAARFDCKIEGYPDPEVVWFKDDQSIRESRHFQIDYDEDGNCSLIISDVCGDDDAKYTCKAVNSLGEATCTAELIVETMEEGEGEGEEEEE

These are yes or no findings as the source states them, for the method shown. For some assays here: In cells and extracts the contact can be indirect. Some binding calls cover weakened binding; strength is not graded here. For some assays here: Sequences can lack the tags named with a protein.

Assay [1] deals with T1, GFP-ARD1 (human) (UniProt P41227).
T1 sequence: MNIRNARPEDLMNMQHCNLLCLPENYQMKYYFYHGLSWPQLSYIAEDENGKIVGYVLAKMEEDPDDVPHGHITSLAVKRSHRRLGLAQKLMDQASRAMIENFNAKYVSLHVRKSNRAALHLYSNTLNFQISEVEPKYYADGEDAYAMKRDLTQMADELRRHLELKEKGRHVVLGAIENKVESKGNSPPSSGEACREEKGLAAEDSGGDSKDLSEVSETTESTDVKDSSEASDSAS
Briefly: co-IP; HT1080 cells co-transfected (4 µg each plasmid); IP with anti-GFP or anti-ARD1, blot with anti-HA or anti-MLCK, and cross-checked in reverse; in Fig. 2A cells treated with 1 µM ionomycin and 30 nM PMA for 8 h.

The target in assay [2] is T2, His-tagged hARD1 (human) (UniProt P41227).
T2 sequence: T1 sequence
Briefly: pull-down; extracted Myc-MLCK peptides (1 µg) incubated with purified His-hARD1 (0.5 µg) at 4°C for 2 h; His-ARD1 pulled down on nickel-affinity beads, blot with anti-Myc; only the target purified.

Assay [3] has as its target T3, hARD1 expressed from pcARD1 (human) (UniProt P41227).
T3 sequence: T1 sequence
Briefly: co-IP; HEK293 cells co-transfected with 4 µg each of pcARD1 and one pcMyc-MLCK fragment; IP with anti-ARD1, blot with anti-Myc.

The target in assay [4] is T3, hARD1 expressed from pcARD1 (human). Briefly: co-IP; HT1080 cells co-transfected (4 µg each plasmid); IP with anti-GFP or anti-ARD1, blot with anti-HA or anti-MLCK, and cross-checked in reverse; in Fig. 2A cells treated with 1 µM ionomycin and 30 nM PMA for 8 h.
Assay [5] shares this target. Briefly: condition: only cells treated with 20 µM BAPTA-AM for 3 h; co-IP; HT1080 cells co-transfected with pcARD1 and pcMLCK, treated with 20 µM BAPTA-AM for 3 h; IP with anti-ARD1.
Assay [6] deals with T4, human arrest defective-1 (hARD1), full-length, yeast two-hybrid bait (human) (UniProt P41227).
T4 sequence: T1 sequence
Briefly: two-hybrid; yeast two-hybrid screen of a human liver cDNA library with full-length hARD1 as bait.

As for “HA-MLCK (357-578) (from UniProt Q15746-2 357-578) (domain or fragment)”, the binding entry in assay [1] is recorded as “binds”.

For the substance “Myc-MLCK_B (from UniProt Q15746-1 272-666) (domain or fragment)”, the binding entry in assay [2] and in assay [3] was “binds” in each case. As for “full-length long MLCK variant 1 (from UniProt Q15746-1 1-1914)”, the binding result is recorded as “binds” in assay [4] and “no binding” in assay [5].

Turning to “full-length long MLCK variant 2 (from UniProt Q15746-2 1-1845)”, the binding entry in assay [4] is recorded as “binds”. On to “long MLCK transcript variant 2, aa. 357-578, two-hybrid library clone (from UniProt Q15746-2 357-578) (domain or fragment)”, for which the binding result in assay [6] is listed as “binds”.

As to “long MLCK variant 1 phosphorylated at Ser439 (from UniProt Q15746-1 1-1914)”, the binding entry in assay [4] was “binds”.
